{"source": "PubChem BioAssay AID624417", "about": "(National Center for Advancing Translational Sciences (NCATS), 2012)", "note": "In all, about 410,000 compounds went through this assay and about 6,400 (1.6%) were called active. This list was built around the results that the source calls inconclusive (neither active nor inactive); the mix of calls is not that of the screen. Calls come from the whole dose curve; as a rule, active = well fitted inhibition curve with a large enough effect; inconclusive = small, poorly fitted or top-dose-only effect; inactive = no such curve, though single readings can be large or run the other way. Potencies of inconclusive entries are left out as doubtful fits. % is set by controls: 0 for no effect and ±100 for the full control effect; potency is the fitted concentration of half-maximal effect; tags give direction and shape of the fitted curve."}
{"target": "Glucagon-like peptide 1 receptor (Homo sapiens) (UniProt P43220)", "sequence (P43220 whole entry, looked up)": "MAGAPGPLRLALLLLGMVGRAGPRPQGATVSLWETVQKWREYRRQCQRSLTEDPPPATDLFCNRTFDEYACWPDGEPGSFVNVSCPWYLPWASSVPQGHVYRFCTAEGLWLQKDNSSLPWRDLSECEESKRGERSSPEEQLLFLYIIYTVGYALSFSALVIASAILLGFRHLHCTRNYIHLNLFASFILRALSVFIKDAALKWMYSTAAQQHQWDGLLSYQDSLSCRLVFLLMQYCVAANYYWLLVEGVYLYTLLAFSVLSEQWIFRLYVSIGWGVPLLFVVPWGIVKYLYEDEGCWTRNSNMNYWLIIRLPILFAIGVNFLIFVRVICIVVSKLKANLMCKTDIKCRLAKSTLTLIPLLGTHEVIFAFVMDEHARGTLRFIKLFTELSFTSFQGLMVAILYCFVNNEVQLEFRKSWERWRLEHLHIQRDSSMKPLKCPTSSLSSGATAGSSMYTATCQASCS", "assay": "qHTS of GLP-1 Receptor Inverse Agonists (Inhibition Mode); note: nearly all actives have a fitted effect of over 55% in size", "conditions": "HEK293 GLP-1R CRE-luciferase, luminescence, 24 h, GLP-1R form is constitutively active; activity change, negative = inhibition: at 38.3 µM (top of the series) unless noted", "summary_of_the_method": "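Stable HEK293 clone (constitutively active GLP-1R + cAMP-response luciferase); 200 cells/uL plated, 12 h pre-culture, compound 24 hr, 37 deg C/5% CO2; detection reagent 12 min RT; luminescence.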"}
{"smiles": "CC(C)/C=C1\\CC/C(=C\\c2ccc(N(C)C)cc2)C1=O", "activity change, negative = inhibition": "inactive: 12.1%"}
{"smiles": "CC(C)(c1ccccc1)c1ccc(OCC(O)CN2CCCC2)cc1", "note": "(stereo unspecified)", "Potency": "inconclusive [inhibitor, partial curve, poor fit]"}
{"smiles": "CCOC(=O)C1(Cc2ccc(Cl)cc2)CCN(CCCn2cccn2)CC1", "Potency": "inconclusive [inhibitor, partial curve, poor fit]"}
{"smiles": "O=C1C2C3C=CC(CC3)C2C(=O)N1c1ccc(Br)cc1[N+](=O)[O-]", "note": "(stereo unspecified)", "Potency": "inconclusive [inhibitor, single point]"}
{"smiles": "Cc1ccc(CN(C(=O)c2ccccc2[N+](=O)[O-])C2CCS(=O)(=O)C2)o1", "note": "(stereo unspecified)", "activity change, negative = inhibition": "inactive: 15.4%"}
{"smiles": "O=C1NC(=S)S/C1=C\\c1cc(Cl)cc(Cl)c1O", "Potency": "inconclusive [inhibitor, single point]"}
{"smiles": "CC(C)(C)c1ccc(-c2noc(CCC(=O)Nc3cccnc3)n2)cc1", "Potency": "inconclusive [inhibitor, partial curve, poor fit]"}
{"smiles": "COc1ccc(Nc2cc(C)nc(NCc3ccccc3)n2)cc1", "Potency": "inconclusive [inhibitor, single point]"}
{"smiles": "O=C(CCl)Nc1cccc(CP(=O)(c2ccccc2)c2ccccc2)c1", "Potency": "inconclusive [inhibitor, single point]"}
{"smiles": "CCCCNC(=O)Nc1nnc(-c2ccc(Cl)cc2)o1", "Potency": "inconclusive [inhibitor, single point]"}
{"smiles": "Cc1cc2ccccc2n1-c1ccc(C(=O)N2CCCCC2)s1", "Potency": "inconclusive [inhibitor, single point]"}
{"smiles": "O=C(CCSCc1ccc(Cl)cc1)NCc1ccco1", "Potency": "inconclusive [inhibitor, full curve]"}
{"smiles": "CC12CCC(C(=O)Nc3cccnc3)(CC1=O)C2(C)C", "note": "(stereo unspecified)", "activity change, negative = inhibition": "inactive: 6.87%"}
{"smiles": "COC(=O)c1ccc(CSc2nc3scc(-c4cccs4)c3c(=O)[nH]2)o1", "activity change, negative = inhibition": "inactive: 6.32%"}
{"smiles": "COc1ccccc1-c1oc2ccccc2c1C#CCCO", "Potency": "inconclusive [inhibitor, single point]"}
{"smiles": "CCCCOc1cccc(C(=O)Nc2cc3nn(-c4ccc(F)cc4)nc3cc2C)c1", "activity change, negative = inhibition": "inactive: 2.34%"}
{"smiles": "Cc1c(C(=O)Nc2nc3ccccc3[nH]2)cccc1[N+](=O)[O-]", "activity change, negative = inhibition": "inactive: -14.6%"}
{"smiles": "CC(C)CCNC(=O)c1ccc2c(Cl)c3c(nc2c1)CCC3", "activity change, negative = inhibition": "inconclusive: -81.2% [inhibitor]"}
{"smiles": "OCCNCCCCOc1ccc(OCc2ccccc2)cc1", "Potency": "inconclusive [inhibitor, full curve, poor fit]"}
{"smiles": "NC(=S)N/N=C/c1ccc(Br)o1", "Potency": "inconclusive [inhibitor, single point]"}
{"smiles": "COc1ccc(NC(=O)CN2CCN(c3c(C)cccc3C)CC2)cc1", "Potency": "inconclusive [inhibitor, single point]"}
{"smiles": "Cn1sc(NC(=O)c2cccc(Cl)c2)nc1=O", "activity change, negative = inhibition": "inactive: 0%"}
{"smiles": "O=c1c2sc(-c3ccccc3)cc2nc2n1CCCCC2", "Potency": "inconclusive [inhibitor, partial curve, poor fit]"}
{"smiles": "Brc1ccc(-c2cc3c(N4CCN(c5ccccc5)CC4)nccn3n2)cc1", "activity change, negative = inhibition": "inactive: 3.23%"}
{"smiles": "COc1ccc(OC2C(=O)N(Cc3ccc4c(c3)OCO4)C2c2cccs2)cc1", "note": "(stereo unspecified)", "Potency": "inconclusive [inhibitor, single point]"}
{"smiles": "Cc1ccc(CNS(=O)(=O)c2ccc3c(c2)NC(=O)C(C)S3)cc1", "note": "(stereo unspecified)", "Potency": "inconclusive [inhibitor, partial curve]"}
{"smiles": "CC(C)CCN(C)C1CCN(S(=O)(=O)c2cccc(C(F)(F)F)c2)CC1", "Potency": "inconclusive [inhibitor, single point]"}
{"smiles": "CC(=O)Nc1cnc(-c2cc(C)c(O)c(C)c2)cn1", "activity change, negative = inhibition": "inactive: 15.2%"}
{"smiles": "Cc1nc2c(OCc3ccc(F)c(F)c3)cccn2c1N(C)C(=O)CCC1CCCC1", "Potency": "inconclusive [inhibitor, single point]"}
{"smiles": "COCCC1CCCCN1C(=O)c1ccc2nc(Cc3ccccc3F)oc2c1", "note": "(stereo unspecified)", "activity change, negative = inhibition": "inactive: -17.4%"}
{"smiles": "CC1(C)c2ssc(=S)c2-c2ccccc2N1C(=O)CSC1=NCCS1", "Potency": "inconclusive [inhibitor, full curve, poor fit]"}
{"smiles": "COc1ccc(CC2(c3ccccc3)NC(=O)NC2=O)cc1", "note": "(stereo unspecified)", "Potency": "inconclusive [inhibitor, full curve, poor fit]"}
{"smiles": "COc1ccc(NC(=O)CC2C(=O)N(c3ccc(C)cc3)C(=O)N2CCc2ccccc2)cc1", "note": "(stereo unspecified)", "activity change, negative = inhibition": "inactive: -29.2%"}
{"smiles": "CCc1ccc(CN2CCN(C(=O)c3cccc(OC)c3OC)CC2)cc1", "activity change, negative = inhibition": "inactive: -58.4%"}
{"smiles": "COc1cc(SC)ccc1C(=O)Nc1ccc(Br)cn1", "Potency": "inconclusive [inhibitor, full curve, poor fit]"}
{"smiles": "NC(=S)NN=C1Cc2cccc3cccc1c23", "Potency": "inconclusive [inhibitor, full curve, poor fit]"}
{"smiles": "CC(OC(=O)C(C)Oc1ccccc1)C(=O)Nc1ccc(S(=O)(=O)N2CCCCC2)cc1", "note": "(stereo unspecified)", "activity change, negative = inhibition": "inactive: -5.34%"}
{"smiles": "N#Cc1nc(COc2ccccc2)oc1N1CCCCCC1", "Potency": "inconclusive [inhibitor, single point]"}
{"smiles": "O=C1CC(c2nc3ccccc3n2Cc2c(F)cccc2Cl)CN1c1cccc(C(F)(F)F)c1", "note": "(stereo unspecified)", "activity change, negative = inhibition": "inactive: 9.47%"}
{"smiles": "COc1ccccc1NC(=O)N1c2ccc(F)cc2CCC1C", "note": "(stereo unspecified)", "Potency": "inconclusive [inhibitor, single point]"}
{"smiles": "Cc1ccc(CNC(=S)Nc2ccc3c(c2)c(=O)n(C)n3Cc2cccc(C(F)(F)F)c2)cc1", "Potency": "inconclusive [inhibitor, single point]"}
{"smiles": "CC(=O)Nc1ccc(/C=N/NC(=O)CCN2CCN(c3ccccc3)CC2)cc1", "activity change, negative = inhibition": "inactive: 3.79%"}
{"smiles": "C=CCNC(=S)N1CCN(c2cccc(C(F)(F)F)c2)CC1", "Potency": "inconclusive [inhibitor, single point]"}
{"smiles": "CSc1ccccc1C(=O)OCC(=O)N1CCCCCC1", "Potency": "inconclusive [inhibitor, partial curve, poor fit]"}
{"smiles": "Oc1c(C2=NCCNC(C(F)(F)F)=C2)ccc2ccccc12", "Potency": "inconclusive [inhibitor, single point]"}
{"smiles": "COC(=O)N1N=C(c2ccccc2)CC1(O)C(F)(F)F", "note": "(stereo unspecified)", "activity change, negative = inhibition": "inactive: 5.54%"}
{"smiles": "Cc1cc(=O)n(C(NC(=O)c2ccccc2)C(=O)c2ccccc2)cn1", "note": "(stereo unspecified)", "activity change, negative = inhibition": "inactive: 1.22%"}
{"smiles": "CCN(CC)CC(=O)Nc1ccc2c(c1)Nc1ccccc1CC2", "Potency": "inconclusive [inhibitor, partial curve, poor fit]"}
{"smiles": "CCCCCCNC(=O)CCNS(=O)(=O)c1ccc(C)cc1", "Potency": "inconclusive [inhibitor, single point]"}
{"smiles": "Cc1ccc(OCC(=O)N/N=C/c2ccc([N+](=O)[O-])o2)cc1", "activity change, negative = inhibition": "inactive: 5.75%"}
{"smiles": "COc1ccc2cc(S(=O)(=O)N3CCCCCC3)ccc2c1", "Potency": "inconclusive [inhibitor, single point]"}
{"smiles": "O=C(NNC1=C(C(=O)C(F)(F)F)CCC1)c1cccc(Cl)c1", "Potency": "active: 2.82 µM"}
{"smiles": "CCOC(=O)c1ccc2c(c1)N(Cc1cccc([N+](=O)[O-])c1)C(=O)c1ccccc1S2", "activity change, negative = inhibition": "inactive: 15.7%"}
{"smiles": "C=CCc1ccc(OCC(O)CN2CCCCC2)c(OC)c1", "note": "(stereo unspecified)", "Potency": "inconclusive [inhibitor, single point]"}
{"smiles": "Cc1sc2nc(CN3CCCC3)nc(N3CCN(S(=O)(=O)c4cccc(F)c4)CC3)c2c1C", "Potency": "inconclusive [inhibitor, partial curve, poor fit]"}
{"smiles": "Cc1c(C(=O)OCC(=O)N2CCCC(C)C2)oc2ccccc12", "note": "(stereo unspecified)", "Potency": "active: 10 µM"}
{"smiles": "COc1ccc(/C=N/NC(N)=S)cc1OC(=O)c1cccc2ccccc12", "Potency": "inconclusive [inhibitor, full curve, poor fit]"}
{"smiles": "Cc1cc(Cl)ccc1NC(=S)NC(C)(C)C", "Potency": "inconclusive [inhibitor, single point]"}
{"smiles": "NC(=O)CSc1nnc(-c2cccc(S(=O)(=O)N3CCOCC3)c2)o1", "activity change, negative = inhibition": "inactive: -1.36%"}
{"smiles": "Cc1ccc(-c2cc(C(=O)N3CCN(c4ccc(F)cc4)CC3)c3ccccc3n2)o1", "Potency": "inconclusive [inhibitor, single point]"}
{"smiles": "COc1ccccc1C(=O)NNC(=O)c1cccc(Br)c1", "activity change, negative = inhibition": "inactive: -9.94%"}
{"smiles": "CCOC(=O)C1CCCN(CC(=O)Nc2c(C(=O)OC)[nH]c3ccc(Br)cc23)C1", "note": "(stereo unspecified)", "Potency": "inconclusive [inhibitor, partial curve, poor fit]"}
{"smiles": "CCOC(=O)/C=C(/C)N1N=C(c2ccc(OC)cc2)CC1c1cccc([N+](=O)[O-])c1", "note": "(stereo unspecified)", "Potency": "inconclusive [inhibitor, single point]"}
{"smiles": "Cc1ccc(CNC(=O)CCSCc2ccc(C)cc2)cc1", "activity change, negative = inhibition": "inconclusive: -36.9% [inhibitor]"}
{"smiles": "Cc1nc(C(C)N(C)Cc2nc(-c3ccc4c(c3)OCO4)no2)c(C)s1", "note": "(stereo unspecified)", "Potency": "inconclusive [inhibitor, single point]"}
{"smiles": "O=C(Nc1cccc(-c2csc(Nc3ccc(Cl)cc3)n2)c1)c1ccccc1", "Potency": "inconclusive [inhibitor, full curve, poor fit]"}
{"smiles": "O=C(c1ccc2c(c1)OCO2)C1CCCN(Cc2cccc(C(F)(F)F)c2)C1", "note": "(stereo unspecified)", "Potency": "inconclusive [inhibitor, single point]"}
{"smiles": "COc1cccc(OCc2nc3ccccc3n2CCOc2ccccc2)c1", "Potency": "inconclusive [inhibitor, single point]"}
{"smiles": "CCn1c(C(=O)NCCCN2CCc3ccccc3C2)cc2sccc21", "Potency": "inconclusive [inhibitor, partial curve]"}
{"smiles": "O=C(Nn1c(-c2ccc(Br)cc2)nc2ccccc2c1=O)c1ccc([N+](=O)[O-])cc1", "Potency": "inconclusive [inhibitor, partial curve, poor fit]"}
{"smiles": "Clc1cc(Br)ccc1OCCOCCN1CCOCC1", "activity change, negative = inhibition": "inactive: -20.2%"}
